Paper PMC4336329 (PLoS ONE, 2015)
The campaign covered roughly 310,000 compounds. About 2,200 (0.71%) showed an effect of 50% or more. The effect is printed as a negative number. The list shows a part of the results.

biological target: human ether-à-go-go-related gene (hERG) potassium channel (human, UniProt Q12809); experiment: primary screen, population patch clamp on CHO cells stably expressing hERG
Sequence (Q12809 whole entry, looked up): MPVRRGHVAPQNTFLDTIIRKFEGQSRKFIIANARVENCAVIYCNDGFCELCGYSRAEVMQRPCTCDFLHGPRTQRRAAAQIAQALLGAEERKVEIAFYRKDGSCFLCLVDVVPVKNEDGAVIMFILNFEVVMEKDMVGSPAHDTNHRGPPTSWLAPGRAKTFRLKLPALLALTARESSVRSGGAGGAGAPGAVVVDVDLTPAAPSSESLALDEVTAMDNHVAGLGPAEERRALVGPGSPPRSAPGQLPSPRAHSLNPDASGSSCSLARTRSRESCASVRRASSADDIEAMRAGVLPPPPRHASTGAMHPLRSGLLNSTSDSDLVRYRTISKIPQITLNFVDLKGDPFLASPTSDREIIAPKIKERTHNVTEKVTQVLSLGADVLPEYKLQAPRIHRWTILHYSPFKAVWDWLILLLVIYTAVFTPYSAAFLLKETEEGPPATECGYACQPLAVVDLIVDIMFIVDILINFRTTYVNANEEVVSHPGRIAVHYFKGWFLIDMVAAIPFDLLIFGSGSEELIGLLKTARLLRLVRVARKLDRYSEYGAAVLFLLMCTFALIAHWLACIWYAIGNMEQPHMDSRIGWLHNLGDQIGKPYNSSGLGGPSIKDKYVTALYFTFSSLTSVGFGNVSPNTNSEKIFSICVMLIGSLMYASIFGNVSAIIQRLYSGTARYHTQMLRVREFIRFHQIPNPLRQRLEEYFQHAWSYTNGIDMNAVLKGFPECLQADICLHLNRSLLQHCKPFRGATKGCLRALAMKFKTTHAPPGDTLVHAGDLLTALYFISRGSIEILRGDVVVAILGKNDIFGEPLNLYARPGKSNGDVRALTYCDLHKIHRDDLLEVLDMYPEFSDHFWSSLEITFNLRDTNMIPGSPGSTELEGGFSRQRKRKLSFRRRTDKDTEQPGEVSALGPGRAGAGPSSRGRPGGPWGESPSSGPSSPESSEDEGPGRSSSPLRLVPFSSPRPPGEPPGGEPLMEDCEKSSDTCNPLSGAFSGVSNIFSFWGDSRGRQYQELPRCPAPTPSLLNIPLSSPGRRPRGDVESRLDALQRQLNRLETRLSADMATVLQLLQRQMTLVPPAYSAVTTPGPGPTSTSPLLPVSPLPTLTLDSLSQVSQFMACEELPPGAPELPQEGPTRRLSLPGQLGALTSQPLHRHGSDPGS

| SMILES | hERG current change (%, negative = inhibition) at 1uM [%] |
| --- | --- |
| C=CCCCCCCCCc1nc(=S)[nH][nH]1 | 13.7 |
| COc1ccccc1Cn1c(=O)c2ccccc2n2c(SCc3csc(C)n3)nnc12 | 8.96 |
| COCCN1C(=O)N(c2cccc(C)c2)C(=O)C1CC(=O)Nc1ccc(OC)cc1 (stereo not drawn) | 16.9 |
| Cc1c(Cl)cccc1N1C(=O)CC(N(O)c2ccccc2)C1=O (stereo not drawn) | 14.5 |
| CC1CCc2[nH]c3ccc(C(=O)N(C)CC(=O)Nc4ccccc4C(F)(F)F)cc3c2C1 (stereo not drawn) | 3.78 |
| Cc1ccc(C(C)C)c(OCc2ccc(-c3nnco3)cc2)c1 | 9.34 |
| CN1CCc2c(sc(NC(=O)CS(=O)(=O)c3ccccc3)c2C(N)=O)C1.Cl | -0.0637 |
| O=C(NCCCN1CCCC1=O)c1ccc(NS(=O)(=O)c2ccc(F)cc2)cc1 | 10.9 |
| N/C(=N\N=C\c1ccco1)SC1CC(=O)N(c2ccccc2)C1=O (stereo not drawn) | 5.55 |
| CC1(C(=O)NCC2CCCO2)Oc2cccnc2NC1=O (stereo not drawn) | 7.64 |
| COC(=O)CN(C#N)c1nc(N(C)C)nc(N(C)C)n1 | -1.03 |
| Nc1c(N(Cc2ccccc2)C(=O)COc2cccc(Cl)c2)c(=O)[nH]c(=O)n1Cc1ccccc1 | -2.34 |
| CNC(=S)N(Cc1cc2cc(OC)c(OC)cc2[nH]c1=O)C1CCCC1 | 13.7 |
| O=C(CCC(=O)OCC(F)(F)C(F)F)Nc1ccccc1F | 19 |
| CCOC(=O)C1CCN(S(=O)(=O)c2ccc3c(c2)NC(=O)C(C)C(=O)N3)CC1 (stereo not drawn) | 17.7 |
| O=C(c1cccs1)n1nc(NCc2ccccc2)nc1NCc1ccccc1 | 15.9 |
| CC(=O)c1c(C(C)=O)c(C)n(Cc2ccc3c(c2)OCO3)c1C | 12.2 |
| CC1(NC(=O)CN2CCN(c3cnn(-c4ccccc4)c(=O)c3Cl)CC2)CCS(=O)(=O)C1 (stereo not drawn) | -5.76 |
| CC(=O)CCc1oc2ccc(NC(C)=O)cc2c1-c1ccc(C)o1 | 0.352 |
| CCN(CC)CCNC(=O)c1cc(Nc2ccc(OC)c(OC)c2)nc2ccccc12 | -6.4 |
| Cc1csc(NC(=O)CSc2nsc(SCC(=O)Nc3nc(C)cs3)c2C#N)n1 | 1.1 |
| CCC(c1nnc(SCC(=O)Nc2ccc(S(N)(=O)=O)cc2)n1Cc1ccccc1)N(C)C (stereo not drawn) | 3.56 |

| SMILES | hERG current change (%, negative = inhibition) at 1uM [%] |
| --- | --- |
| O=C(NCCO)c1ccc2c3n(nc2c1)-c1ccc(Cl)cc1CO3 | 4.62 |
| CCN1C(=O)c2cccc3c(S(=O)(=O)Nc4ccccc4)ccc1c23 | 4.66 |
| CC(C)CN(C(=O)COC(=O)C12CC3CC(CC(C3)C1)C2)c1c(N)n(Cc2ccccc2)c(=O)[nH]c1=O | 19.8 |
| O=C(Nc1ccccc1)c1ccc(-c2ccccc2C(F)(F)F)o1 | -6.18 |
| CCC(CC)C(=O)Nc1nnc(-c2cccs2)s1 | 9.91 |
| O=C(CCNS(=O)(=O)c1ccc(OC(F)(F)F)cc1)N1CCN(S(=O)(=O)c2cccc(F)c2)CC1 | 15.2 |
| CN(C(=O)Cn1c(=O)oc2ccccc21)C1CCCCC1 | 3.61 |
| O=C(NCCCn1ccnc1)c1cc2ccccc2oc1=O | 4.74 |
| COc1cc(C(=O)NCc2ccncc2)cc(Br)c1OCc1ccccc1 | 13.6 |
| CCc1ccc2c(c1)cc(CN(Cc1ccco1)C(C)=O)c1nnnn12 | -12.3 |
| CC1(C)CC(NC(=O)COc2ccc3ccc(=O)oc3c2)CC(C)(C)N1 | 13.6 |
| Cc1nc2c3ccccc3n(Cc3ccccc3F)c2s1 | 3.13 |
| COC(=O)c1ccc(CNC(=O)CSc2nc3ccccc3[nH]2)cc1 | 2.3 |
| O=C(NCC1CCCO1)c1cc(-c2ccccc2F)no1 (stereo not drawn) | 27.5 |
| COC(=O)c1ccc(NC(=O)Cn2nc(SC)n(N)c2=S)cc1 | 16.6 |
| NC(=O)c1ccccc1NS(=O)(=O)c1ccccc1 | 0.164 |
| COc1ccccc1NC(=O)Nc1cccc(C)n1 | 5.95 |
| Cc1cc(/C=C(/C#N)C(=O)Nc2ccccc2)c(C)n1-c1cccnc1 | -11.6 |
| O=C(COC(=O)c1ccc(O)cc1O)c1ccc2c(c1)OCO2 | 10.7 |
| CC1(C)CC(CCNCc2ccc3c(c2)OCO3)(Cc2ccccc2)CCO1.Cl (stereo not drawn) | -6.23 |
| CCc1nnc(NS(=O)(=O)c2ccc(NC(=O)c3ccc(Br)cc3)cc2)s1 | 11.2 |
| COc1ccc(N2C(=O)CC(N(CCc3ccc(S(N)(=O)=O)cc3)C(=S)Nc3ccccc3)C2=O)cc1 (stereo not drawn) | 6.04 |

| SMILES | hERG current change (%, negative = inhibition) at 1uM [%] |
| --- | --- |
| O=C(c1cnn(C(=O)c2ccc(O)cc2)c1)c1ccccc1O | 11.7 |
| Cc1ccc(NC(=O)CCSc2nnc(Cc3ccccc3)o2)cc1 | 3.96 |
| CCC(=O)n1nc(-c2ccc(Cl)cc2)nc1N | -0.583 |
| Nc1[nH]ncc1-c1ccc(Cl)cc1 | 13.2 |
| CC1CCN(C(=O)CSc2nc3ncccc3[nH]2)CC1 | 12.1 |
| CC1CCCCN1C(=O)CCn1c(=S)oc2ccccc21 (stereo not drawn) | 10.8 |
| COc1ccc(/C=N/N2C(=O)C3C4C=CC(C4)C3C2=O)cc1[N+](=O)[O-] (stereo not drawn) | 4.78 |
| O=C(CCn1c(=O)c2sccc2n(CC(=O)OCc2ccccc2)c1=O)NCc1ccccc1 | -1.57 |
| O=C(O)C1CCCCC1C(=O)Nc1cccc(Br)c1 (stereo not drawn) | 6.34 |
| NNc1n[nH]c(=S)n1N | 14.1 |
| O=C(Nc1nc(-c2ccc(S(=O)(=O)N3CCCCCC3)cc2)cs1)c1ccccc1 | 3.52 |
| CCc1ccc2c(c1)C(c1cccs1)=NNC(c1cccnc1)=N2 | -4.28 |
| CC1CCCCC1NC(=O)c1cc(=O)[nH]c2ccccc12 (stereo not drawn) | 20.8 |
| Cc1ccc(NC(=O)COc2cccc3ccccc23)c(O)c1 | 11.9 |
| O=C1/C(=C\c2ccc3ccccc3c2)CCCc2ccccc21 | 0.188 |
| CCn1cnc2cc(NCc3ccc(OC)cc3)ccc21 | -17.5 |
| COc1cccc(C(c2c(O)nc(SC)n(C)c2=O)c2c(O)nc(SC)n(C)c2=O)c1 | 4.95 |
| O=C(CCn1c(=O)c2ccccc2n(CC(=O)N2CCN(c3ccccc3)CC2)c1=O)NCc1ccco1 | -1.01 |
| COc1cc(N2CCCC2)ccc1[N+](=O)[O-] | 6.12 |
| C/C(=N\NC(=O)c1cccnc1)c1nnn(-c2nonc2N)c1C | 1.64 |
| O=C(O)c1ccccc1N1C(=O)C2C3c4ccccc4C(Br)(c4ccccc43)C2C1=O (stereo not drawn) | 11.4 |
| Cc1ccc(C(=O)N2CCOCC2)cc1S(=O)(=O)Nc1cccc(C)c1C | -3.16 |

| SMILES | hERG current change (%, negative = inhibition) at 1uM [%] |
| --- | --- |
| COc1ccc(/C=N/Nc2nc(-c3cccc(S(=O)(=O)N4CCCC4)c3)cs2)cc1OC | 18.1 |
| CCOC(CNC(=O)CCc1c(C)nc2nc(C)nn2c1C)OCC | 15.1 |
| CCC1Oc2ccccc2N(CC(=O)NCc2cccs2)C1=O (stereo not drawn) | 12.4 |
| COc1cc(NC(=O)c2ccc3c(c2)OCO3)ccc1NC(=O)c1ccco1 | 15.2 |
| O=C(/C=C/c1cc2c(cc1Br)OCO2)NCc1ccc(Cl)cc1 | 10.6 |
| O=c1[nH]c(/C(Cl)=C/c2c(F)cccc2Cl)nc2cc(Cl)ccc12 | 2.15 |
| CCCC(C(=O)NC(C)(C)C)N(CC1CCCO1)C(=O)c1snc(C(N)=O)c1N (stereo not drawn) | 6.13 |
| COc1ccc(-n2nc3c(c2NC(=O)c2ccc(S(=O)(=O)N4CCOCC4)cc2)CS(=O)(=O)C3)cc1 | 17 |
| COc1ccccc1C(CNC(=O)C(C)Oc1ccc(Br)cc1)N1CCCC1 (stereo not drawn) | 3.99 |
| Cc1ccc(S(=O)(=O)C(CCC(=O)N2CCOCC2)S(=O)(=O)c2ccc(C)cc2)cc1 | 8.7 |
| COc1cc(CCN2C(=O)N[C@@H](CCc3ccccc3)C(C(C)=O)=C2C)cc(OC)c1OC | -1.33 |
| Cc1sc2ncnc(N/N=C/c3ccc(O)cc3)c2c1C | 6.57 |
| COc1ccccc1Sc1nc(-c2ccccc2)ncc1OC | 16.7 |
| Br.Cc1ccc(N2Cc3ccccc3C2=N)cc1[N+](=O)[O-] | 7.8 |
| Clc1ccc(-n2nnc(-c3nccs3)n2)cc1Cl | 17.8 |
| CC(=O)Nc1ccc(NC(=O)CCC(=O)Oc2ccc(C)cc2)cc1 | 16.3 |
| N#Cc1ccc(OCC(=O)Nc2ccccc2NS(=O)(=O)c2cccs2)cc1 | 8.92 |
| O=C(/C=C/C=C/c1ccccc1)CC1(O)C(=O)Nc2ccccc21 (stereo not drawn) | 11 |
| COc1cc(OC)cc(C(=O)OCC(=O)NC2CCCCCC2)c1 | 6.3 |
| Cc1ccc(SC(C)C(=O)NC2CC2)cc1 (stereo not drawn) | 20.1 |
| Cc1ccc(NC(=O)COC(=O)Cn2cnc3ccccc32)cc1S(=O)(=O)N(C)C | 1.93 |
